{"source": "PubChem BioAssay AID1347120", "about": "(National Center for Advancing Translational Sciences (NCATS), 2019)", "note": "Values joined by “and” are separate entries in the source; they are usually repeats but may differ in a detail not shown here. Equal values may be shown once. Screen size: about 390,000 compounds; about 930 (0.24%) were called active. This list was built around the results that the source calls inconclusive (neither active nor inactive); the mix of calls is not that of the screen. The call rests on the fitted dose curve; in most records, active means well fitted activation curve with a large enough effect; inconclusive means small, poorly fitted or top-dose-only effect; inactive means no such curve, though single readings can be large or run the other way. A potency beside an inconclusive call is a rough fit, not a confirmed value. Potency means the concentration at half of the fitted maximal effect; tags describe the fitted curve by direction and shape.", "data": [{"experiment": "qHTS for Suppressors of FUS Proteinopathy: Primary screen using FUS-linked yeast assay; further: nearly all actives have a fitted effect of over 55% in size;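 on growth rescue (activation): plate controls were DMSO vehicle for no effect and reference control for full effect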", "details": "S. cerevisiae FUS-expressing, OD600, 24 h; Potency: growth rescue; growth rescue (activation): at 76.6 µM (top of the series)", "outline": "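Yeast FUS proteinopathy model; galactose-induced FUS (2%), starting OD 0.005. Cpds in dilution series, 24hr, 30C, 99% humidity. Abs 600 nm growth. Pos ctrl CP55940 (top 92uM final); neg ctrl DMSO.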", "values": [{"smiles": "CCc1nc2ccc(C(=O)N(C)Cc3ccco3)cn2c1N(CC)Cc1cccc(Br)c1", "Potency": "inactive"}, {"smiles": "CCC(C)c1ccc(OCC(=O)Nc2cccc(-c3nc4ncccc4o3)c2)cc1", "note": "(centres undefined)", "Potency": "inconclusive: 50.1 µM [activator, single point]"}, {"smiles": "COC(=O)C1=C(C)N=C2SC(C#N)=C(N)N2C1c1cccc(OC)c1", "note": "(centres undefined)", "Potency": "inactive"}, {"smiles": "Cc1ccc(Cn2nnc3c(=O)n(CC(=O)N4CCN(c5ccccc5)CC4)cnc32)cc1", "Potency": "inactive"}, {"smiles": "Cc1ccc(-c2nn(-c3ccccc3)cc2CN(Cc2ccccc2)C(=O)CCC(=O)O)o1", "Potency": "inconclusive: 35.5 µM [activator, partial curve, poor fit]"}, {"smiles": "CSCC[C@H](NC(=O)[C@@H]1Cc2c([nH]c3ccccc23)C2c3ccccc3C(=O)N21)C(=O)NCC1CCCO1", "note": "(some centres undefined)", "Potency": "inconclusive: 31.6 µM [activator, single point]"}, {"smiles": "CCc1ccc(OCC(=O)NC2CCCCC2)c(Br)c1", "Potency": "inconclusive: 31.6 µM [activator, single point]"}, {"smiles": "CC1=CC(C)(C)N2C(=O)C3(C(C#N)=C(N)Oc4cc(O)ccc43)c3c(C)c(C)cc1c32", "note": "(centres undefined)", "Potency": "inconclusive: 15.8 µM [activator, partial curve, poor fit]"}, {"smiles": "Cc1[nH]c2c(ccc3ccccc32)c1C1C(CCN)C1(C)C", "note": "(centres undefined)", "Potency": "inconclusive: 39.8 µM [activator, partial curve, poor fit]"}, {"smiles": "O=C(NCc1ccccc1Br)C1CCCN(C(=O)N2CCOc3ccccc32)C1", "note": "(centres undefined)", "Potency": "inactive"}, {"smiles": "COc1ccc(OCC(O)Cn2c(=N)n(Cc3ccccc3)c3ccccc32)cc1", "note": "(centres undefined)", "Potency": "inconclusive: 7.08 µM [activator, single point]"}, {"smiles": "COCCCNC(=O)Cn1c(=O)n(Cc2ccc(C(=O)NCc3ccc(C)cc3)cc2)c(=O)c2ccccc21", "Potency": "inconclusive: 50.1 µM [activator, single point]"}, {"smiles": "Cc1ccc(S(=O)(=O)Nc2ccc3c(c2)nc2n3CCN(Cc3ccccc3)C2)cc1", "Potency": "inconclusive: 35.5 µM [activator, partial curve, poor fit]"}, {"smiles": "Clc1ccc(-n2nnnc2-c2cnc(-c3ccccn3)nc2-c2cccs2)cc1", "Potency": "inconclusive: 22.4 µM [activator, single point]"}, {"smiles": "CSc1ccc(CNC(=O)CCn2ccc3cc(S(=O)(=O)N4CCC(C)CC4)ccc32)cc1", "Potency": "inconclusive: 35.5 µM [activator, single point]"}, {"smiles": "Cc1c(Cl)cccc1NC(=O)N1CCC(CN2CCCC2)CC1", "Potency": "inactive"}, {"smiles": "COc1cccc(C2CC(c3ccc(Cl)cc3Cl)n3nc(N)nc3N2)c1", "note": "(centres undefined)", "Potency": "inconclusive: 31.6 µM [activator, partial curve, poor fit]"}, {"smiles": "COc1ccc(C2C(C#N)=C(N)N(c3sc4c(c3C#N)CCCC4)C3=C2C(=O)CC(C)(C)C3)cc1OC", "note": "(centres undefined)", "Potency": "inconclusive: 20 µM [activator, partial curve, poor fit]"}, {"smiles": "COc1cccc(-c2sc3ccccc3c2-c2ccc(OCCN(C)C)cc2)c1", "Potency": "inconclusive: 44.7 µM [activator, single point]"}, {"smiles": "COC(=O)c1ccc(NC(=O)COc2ccc(C3C(C#N)=C(N)Oc4c3ccc3ccccc43)cc2OC)cc1", "note": "(centres undefined)", "Potency": "inconclusive: 22.4 µM [activator, partial curve, poor fit]"}, {"smiles": "Cc1ccc2c(CNCc3cccc(Cl)c3)c(C(=O)O)n(Cc3ccc(F)cc3Cl)c2c1", "Potency": "inactive"}, {"smiles": "COc1ccc(NC(=O)c2cc(C3CCCCN3C(=O)c3cc(OC)c(C)c(OC)c3)on2)c(C)c1", "note": "(centres undefined)", "Potency": "inconclusive: 15.8 µM [activator, partial curve, poor fit]"}, {"smiles": "Cn1c(SCC(=O)N2CCOCC2)nnc1-c1ccncc1", "Potency": "inconclusive: 11.2 µM [activator, single point]"}, {"smiles": "CCOC(=O)c1ccc(CN(Cc2ccc(F)cc2)S(=O)(=O)c2ccc(F)cc2)cc1", "Potency": "inconclusive: 3.98 µM [activator, full curve]"}, {"smiles": "N#Cc1nc(Cc2ccccc2)oc1NCc1cccnc1", "Potency": "inactive"}, {"smiles": "N=C1/C(=C\\c2ccc(OC(=O)c3ccco3)cc2)C(=O)N=C2SC(N3CCCCC3)=NN12", "Potency": "inconclusive: 11.2 µM [activator, partial curve, poor fit]"}, {"smiles": "COc1cc(C=C2C(=O)c3ccccc3C2=O)cc(OC)c1", "Potency": "inconclusive: 4.47 µM [activator, full curve]"}, {"smiles": "O=C(C1=C(O)C(=O)N(CCc2ccccc2)C1c1cccs1)c1ccco1", "note": "(centres undefined)", "Potency": "inconclusive: 39.8 µM [activator, single point]"}, {"smiles": "COCCCNC(=O)c1cn(CC(C)C)c(=O)c2c1c1ccccc1n2C", "Potency": "inconclusive: 44.7 µM [activator, partial curve, poor fit] and inconclusive: 50.1 µM [activator, single point]"}, {"smiles": "COc1cc(OC)cc(-n2nnnc2SCC(=O)NCc2ccc3c(c2)OCO3)c1", "Potency": "inconclusive: 39.8 µM [activator, partial curve, poor fit]"}, {"smiles": "CC(=O)c1ccc(N2CCN(C(=O)C3CCN(S(=O)(=O)c4ccc(Br)s4)CC3)CC2)cc1", "Potency": "inactive"}, {"smiles": "O=C(Nc1nc2c(s1)CCCC2)c1ccc2ncsc2c1", "Potency": "inactive"}, {"smiles": "CCOc1ccc(S(=O)(=O)NCC(c2ccc(N(C)C)cc2)N2CCCC2)cc1", "note": "(centres undefined)", "Potency": "inactive"}, {"smiles": "Cc1ccc(C)n1NC(=O)c1ccc([N+](=O)[O-])cc1", "Potency": "inconclusive: 3.55 µM [activator, full curve]"}, {"smiles": "CC1(C)Cc2ccccc2-c2nnc(SCc3ccc(C#N)cc3)n21", "Potency": "inactive"}, {"smiles": "O=C(Nc1ccccc1)c1ccc2nsnc2c1", "growth rescue (activation)": "inconclusive: 68.5% [activator]"}, {"smiles": "COc1ccc(NC(=O)CN(C)C(=O)c2cc3c(s2)CCC3)cc1", "Potency": "inactive"}, {"smiles": "S=c1[nH]nc(-c2cnccn2)n1-c1ccccc1", "Potency": "inactive"}, {"smiles": "COC(=O)[C@]12C[C@H](CC(=O)NCc3cccc4ccccc34)C(=O)N(Cc3ccco3)C1=C[C@H](C1CCCC1)O[C@@H]2C", "Potency": "inconclusive: 10 µM [activator, full curve]"}, {"smiles": "CCCCN1CC(c2nc3ccccc3n2CCCCOc2ccccc2C)CC1=O", "note": "(centres undefined)", "Potency": "inconclusive: 25.1 µM [activator, single point]"}, {"smiles": "Oc1cccc(-c2nc3ccccc3s2)c1", "Potency": "inactive"}, {"smiles": "Brc1ccc(Cn2c(-c3ccc(Br)o3)nc3ccccc32)o1", "Potency": "inconclusive: 39.8 µM [activator, single point]"}, {"smiles": "O=C(c1ccc2c(c1)N(Cc1ccc(Cl)cc1)C(=O)c1ccccc1S2(=O)=O)N1CCCCCC1", "Potency": "active: 28.2 µM"}, {"smiles": "O=C(Nc1cccc(Cl)c1Cl)c1cc(S(=O)(=O)N2CCCCC2)ccc1F", "Potency": "inactive"}, {"smiles": "COc1cccc(N2CC(C(=O)Nc3nnc(SCCN4CCOCC4)s3)CC2=O)c1", "note": "(centres undefined)", "Potency": "inactive"}, {"smiles": "CC(c1ccco1)N(C(=O)c1cccc(S(=O)(=O)N(C)C)c1)c1ccccn1", "note": "(centres undefined)", "Potency": "inactive"}, {"smiles": "O=[N+]([O-])c1cccnc1N1CCC(c2cc(-c3ccc(Cl)cc3Cl)n[nH]2)CC1", "Potency": "active: 25.1 µM"}, {"smiles": "COc1ccc(C(=O)/C(C#N)=N/Nc2cccc([N+](=O)[O-])c2)cc1", "Potency": "inactive"}, {"smiles": "Cc1cc(C)c(S(=O)(=O)Nc2ccc3oc4c(c3c2)CCCC4)cc1C", "Potency": "inconclusive: 50.1 µM [activator, single point]"}, {"smiles": "O/N=C1\\CCC\\C1=C/c1ccco1", "Potency": "inactive"}, {"smiles": "C/C=C\\C=C\\C(=O)Nc1cccc(C2=NOC3(C2)C[C@H](C(N)=O)N(C(=O)c2ccccc2C(=O)c2ccccc2)C3)c1", "note": "(some centres undefined)", "Potency": "inconclusive: 35.5 µM [activator, partial curve, poor fit]"}, {"smiles": "CCOC(=O)C1=C(O)C(=O)N(c2ccc(S(N)(=O)=O)cc2)C1c1ccc(OC)cc1OC", "note": "(centres undefined)", "Potency": "inconclusive: 35.5 µM [activator, single point]"}, {"smiles": "O=C(Nc1cccc(-c2nc3ccccc3s2)c1)c1cc(-n2cnnc2)ccc1Cl", "Potency": "inconclusive: 25.1 µM [activator, single point]"}, {"smiles": "O=C(Nc1ccccc1)c1sc(Cl)nc1-c1ccccc1", "Potency": "inactive"}, {"smiles": "CCN(CC)c1ccc(-c2nn3c(-c4ccc(C(C)(C)C)cc4)nnc3s2)cc1", "Potency": "inactive"}, {"smiles": "COc1ccc2c(c1)CC/C(=C\\c1ccc(C)o1)C2=O", "Potency": "inactive"}, {"smiles": "O=C(NCc1nc2ccccc2[nH]1)C1=C[C@@H](c2ccc(Br)cc2)C[C@@H](OCc2ccc(CO)cc2)O1", "Potency": "inconclusive: 15.8 µM [activator, partial curve]"}, {"smiles": "COC(=O)[C@]12C[C@H](CC(=O)NCc3ccccc3)C(=O)N(Cc3ccco3)C1=C[C@H](C(C)C)O[C@@H]2C1CC1", "Potency": "inconclusive: 14.1 µM [activator, partial curve]"}, {"smiles": "CCOC(=O)c1ccc(NC(=O)CSc2nc3c(c(=O)[nH]2)CN(Cc2ccccc2)CC3)cc1", "Potency": "inconclusive: 20 µM [activator, single point]"}, {"smiles": "CC[C@]12c3[nH]c4cc(-c5ccco5)ccc4c3CCN1C(=O)[C@@H](CC(=O)NC/C=C(\\C)CCC=C(C)C)C[C@@H]2C(=O)N1CCN(C(=O)c2ccco2)CC1", "Potency": "inconclusive: 17.8 µM [activator, partial curve, poor fit]"}, {"smiles": "Cc1ccc(CN(C)C(=O)COC(=O)CSc2ccc([N+](=O)[O-])cc2)cc1", "Potency": "inactive"}, {"smiles": "C[C@H]1CNC(=O)c2c(C(=O)Nc3cccc(Cl)c3)ncn21", "Potency": "inconclusive: 28.2 µM [activator, single point]"}, {"smiles": "CCC(C)Sc1cc(-c2nc3cc(C)ccn3c2NC2CCCCC2)ccc1OC", "note": "(centres undefined)", "Potency": "inconclusive: 17.8 µM [activator, partial curve] and inconclusive: 39.8 µM [activator, single point]"}, {"smiles": "Cc1ccc(CN2CCCCC(NC(=O)c3ccc(-c4ccccc4)cc3)C2=O)cc1", "note": "(centres undefined)", "Potency": "inconclusive: 28.2 µM [activator, single point]"}]}]}
